Source: PubChem BioAssay AID463173 (ICCB-Longwood Screening Facility, Harvard Medical School, 2010)
About 4,300 (8.3%) of roughly 52,000 compounds were called active. Rule as the data show it: active = survival mostly below about 52% (no sharp cut-off); inactive = mostly above about 56%. The list shows a part of the results.

tested on: DeltatarO mutant; test: growth inhibition of S. aureus wild type versus tarO mutant, primary screen, teichoic acid synthesis inhibitors, RN4220, OD600 (AID 463173); conditions: OD600, 18 h, hits give low values, screened at 18.75 µg/mL (by protocol)

| SMILES | survival |
| --- | --- |
| CC(=O)N1CCc2c(sc3c2c(=O)n(-c2ccc(F)cc2)c(=O)n3Cc2cc(C)ccc2C)C1 | inactive: 112% |
| COc1ccc(-c2noc(-c3ccc(N4CCN(C)CC4)c([N+](=O)[O-])c3)n2)cc1 | active: 42% |
| COc1ccc(S(=O)(=O)c2c(O)c(C)cc(NS(=O)(=O)c3ccc(Cl)cc3)c2C(C)C)cc1 | inactive: 58% |
| CC(C)OC(=O)c1cc2c(ccn2C)n1CCC#N | inactive: 96% |
| COc1ccc(C2CC(=O)N(Cc3ccccc3C)c3c2c(C)nn3-c2nc(C)cc(C)n2)c(OC)c1 (configuration not stated) | inactive: 80% |
| O=C(OCC(=O)N1CCN(c2ccccc2)CC1)c1ccccn1 | inactive: 97% |
| COc1ccc(NC(=O)CSC2=Nc3ccccc3C3=NC(CC(=O)NCc4ccccc4OC)C(=O)N23)cc1Cl (configuration not stated) | inactive: 68% |
| COc1ccc(-c2nc3c4ccccc4n(CC(=O)Nc4ccc(C(C)C)cc4)c(=O)n3n2)cc1 | inactive: 78% |
| CC(C)(C)c1ccc(-c2nc(SCCOc3ccc(Cl)cc3)n3[nH]c(=O)cc3n2)cc1 | inactive: 112% |
| Cc1ccccc1-n1c(SCC(=O)Nc2ccc(Cl)cc2Cl)nc(O)cc1=O | inactive: 75% |
| COc1ccc(-c2nc(C)c(CCNC(=O)C(=O)Nc3ccccc3F)s2)cc1 | inactive: 115% |
| Cc1ccc(NC(=O)Cn2c(=O)n(CC3CCC(C(=O)NC(C)C)CC3)c(=O)c3sccc32)cc1 (configuration not stated) | inactive: 74% |
| COc1ccc(C(CNC(=O)COc2cc(C)cc(C)c2)N2CCCCC2)cc1 (configuration not stated) | inactive: 90% |
| COc1ccccc1-n1nc(-c2ccccc2)c2cnc3c(F)cc(F)cc3c21 | inactive: 112% |
| COc1ccc(CCN2CCC(CNC(=O)c3cnn(-c4ccc(C)cc4)c3C3CCN(C(=O)OC(C)(C)C)CC3)CC2)cc1 | inactive: 125% |
| CCN1CCN(CCC(=O)Nc2ccc(F)cc2)CC1 | inactive: 100% |
| O=C(CC(=O)NN=C1CCCC1)NCc1ccccc1 | inactive: 98% |
| COc1cc(C(=O)N2CCN(CCc3ccncc3)CC2)cc(OC)c1OC | inactive: 89% |
| COc1cccc(-n2c(=O)c3c(C)c(C(=O)N(C)C)sc3n(Cc3cccc(C)c3)c2=O)c1 | active: 37% |
| CC(C)(C)c1cc(-c2ccccc2)n[nH]1 | inactive: 102% |
| Cc1nc2ccccc2n1C(C)c1ccccc1 (configuration not stated) | inactive: 77% |
| CCC(=O)OCc1cnc(C)c2oc(=O)c(C(=O)Nc3ccc(CC)cc3)cc12 | inactive: 130% |

| SMILES | survival |
| --- | --- |
| CC(NC(=O)C1CCN(C(=O)N2CCOc3ccc(Cl)cc32)CC1)c1ccccc1 (configuration not stated) | inactive: 50% |
| Cc1[nH]c(=O)[nH]c(=O)c1Oc1ccccc1 | inactive: 103% |
| COc1ccc(-c2nc3c(c(SCc4cc(C)ccc4C)n2)Cc2c(CO)cnc(C)c2O3)cc1 | inactive: 83% |
| COc1ccc(N2CCN(C(=O)c3nn(C)c4c3CS(=O)(=O)c3ccccc3-4)CC2)cc1 | inactive: 69% |
| COc1ccc(CCNC(=O)CS(=O)Cc2nc(-c3ccc(C)cc3)oc2C)cc1OC (configuration not stated) | inactive: 76% |
| O=C(CCSCc1ccc(Cl)cc1)N1CCN(c2ccccc2F)CC1 | inactive: 77% |
| CCN(c1ccccc1)S(=O)(=O)c1ccc(NC(=O)c2cc(=O)c3ccc(C)c(C)c3o2)cc1 | inactive: 64% |
| Cc1ccc2c(CC(=O)Nc3c(C(=O)c4ccc(F)cc4)oc4ccccc34)coc2c1 | inactive: 60% |
| CCOC(=O)c1ccc(NC(=O)CCc2c(C)n(CC)c3cc(-c4ccccc4OC)nn3c2=O)cc1 | inactive: 92% |
| CCOC(=O)c1[nH]c(C)c(CCC(=O)NCc2ccc(C)cc2)c1C | inactive: 75% |
| CCc1cccc(-n2c(=O)c3cccnc3n2CC(=O)NCc2ccccc2Cl)c1 | inactive: 95% |
| COc1ccccc1Nc1nn2c(=O)c3ccc(C(=O)Nc4ccc(F)cc4)cc3nc2s1 | inactive: 86% |
| CCCN1C(=O)c2ccccc2NC1c1cc(OC)c(OC)c(OC)c1 (configuration not stated) | inactive: 96% |
| NC(=O)c1cc(S(=O)(=O)NCc2ccc(Br)cc2)cs1 | inactive: 99% |
| CN1C(=O)N(C)C2(CC1(C)C)CC(C)(C)N(C)C(=O)N2C | inactive: 102% |
| CCOc1ccc2oc(=O)cc(CN3CCN(C(=O)c4cccc(F)c4)CC3)c2c1 | active: 31% |
| CCCN(CCC)CCNC(=O)Cn1ncc2c([nH]c3ccc(C)cc32)c1=O | inactive: 74% |
| CC(=O)N1c2ccccc2NC(=O)C1CC(=O)Nc1cccc(C)c1 (configuration not stated) | inactive: 100% |
| CC1CCN(S(=O)(=O)c2cc(C(=O)NCCc3ccccc3)n(C)c2)CC1 | inactive: 89% |
| Cc1ccc(C)c(N2CCN(C(=O)c3cc4cc5ccc(C)cc5nc4s3)CC2)c1 | inactive: 95% |
| CC(C)(C)c1ccc(C(=O)Nc2cc(-c3ccccc3)nn2-c2ccccc2)cc1 | inactive: 83% |
| COc1ccc(N2CCN(C(=O)c3ccc(NC(=O)c4nsc5ccccc45)cc3)CC2)cc1 | inactive: 84% |

| SMILES | survival |
| --- | --- |
| O=C(/C=C\c1ccc2c(c1)OCO2)NC1CC(=O)N(c2ccc(F)cc2)C1 (configuration not stated) | inactive: 80% |
| CCOCCCNC(=O)c1cc2c(=O)n3ccccc3nc2s1 | inactive: 89% |
| CCOc1ccc(-n2c(=O)c3c4c(sc3n(Cc3cc(=O)n5cc(Cl)ccc5n3)c2=O)CCC4)cc1 | active: 64% |
| CCc1ccc(NC(=O)Cn2c(=O)n(Cc3nc(C)no3)c(=O)c3cc4c(cc32)OCO4)cc1 | inactive: 82% |
| COc1ccccc1NC(=O)CSc1nnc(-c2nonc2NC(C)=O)n1-c1ccccc1 | inactive: 63% |
| CN1CCN(C(=O)c2ccc(C(C)(C)C)cc2)CC1 | inactive: 90% |
| Cc1ccc(CNc2nc3c(S(=O)(=O)c4ccc(C)c(C)c4)nnn3c3ccc(Cl)cc23)cc1 | inactive: 87% |
| O=C(O)C1CC=CCC1C(=O)N(Cc1ccccc1)c1ccccc1 (configuration not stated) | inactive: 77% |
| O=C(CN1CCN(c2ccc(Cl)cc2)CC1)Nc1ccc(Cl)c(C(F)(F)F)c1 | inactive: 85% |
| Cc1ccc(CNC(=O)CCn2ccc3cc(S(=O)(=O)N4CCCC4)ccc32)cc1 | inactive: 68% |
| COc1cc(-c2nc3cc(Cl)ccc3o2)cc(OC)c1OC | inactive: 87% |
| Cc1cccc(-c2nc(CCNC(=O)c3ccccc3Br)cs2)c1 | inactive: 128% |
| CCOC(=O)c1ccccc1NC(=O)N1CCCN(S(=O)(=O)c2ccc3c(ccn3CC)c2)CC1 | inactive: 70% |
| CCOc1ccc2nc(NCCNC(=O)Nc3ccc(SC)cc3)c(C#N)cc2c1 | inactive: 100% |
| CCc1ccc(CNC(=O)C2CCCN(c3nn4cc(-c5ccc(F)cc5)nc4s3)C2)cc1 (configuration not stated) | inactive: 71% |
| O=C(Nc1cc(F)ccc1F)c1ccc2c(c1)nnn2C1CCCC1 | inactive: 77% |
| CCOc1ccc(-c2nc3c(C#N)c[nH]n3c2NC2CCCCC2)cc1 | inactive: 52% |
| CCOC(=O)C1CCN(C(=O)C2CCN(c3nnc(C)c4c(C)n(-c5ccccc5)nc34)CC2)CC1 | inactive: 116% |
| Cc1nn(CC(=O)NCc2ccccc2Cl)c(=O)c2cccn12 | inactive: 91% |
| CCCC(=O)Nc1cc(C(=O)NCc2ccc(OC)cc2)ccc1S(=O)(=O)c1ccc(Cl)cc1 | inactive: 73% |
| COc1ccc(NC(=O)CSc2nnc3scc(-c4ccc(Cl)cc4)n23)cc1 | inactive: 95% |
| CCOC(=O)c1c(C)c(-c2ccccc2)n(CC(=O)Nc2cccc(F)c2)c1C | inactive: 75% |

| SMILES | survival |
| --- | --- |
| COC(=O)c1sccc1S(=O)(=O)N(CC(=O)NCc1ccccc1)c1ccc(C)c(C)c1 | inactive: 55% |
| Cn1nnnc1SCCNCc1ccc(OCc2ccccc2)cc1 | inactive: 72% |
| Cc1cccc(NC(=O)CN2C(=O)COc3ccc(S(=O)(=O)N4CCC(C)CC4)cc32)c1C | inactive: 82% |
| CCN(CC)CCCNC(=O)c1nn(-c2ccc(OC)c(Cl)c2)c(=O)c2c1c1ccccc1n2C | inactive: 126% |
| Cc1ccc(S(=O)(=O)N(CC(=O)N2CCc3ccccc3C2)c2ccc(C)c(C)c2)cc1 | inactive: 55% |
| Cc1ccc(N2CCN(S(=O)(=O)N3CCOCC3)CC2)cc1Cl | inactive: 94% |
| Cc1ccc(CNC(=O)Cn2c(=O)n(-c3ccc(C)c(F)c3)c(=O)c3sc4ccccc4c32)cc1 | inactive: 75% |
| O=C(Nc1noc2ccccc12)c1c(F)cccc1F | inactive: 87% |
| Cc1cccc(NC(=O)CN2c3ccccc3S(=O)(=O)c3ccccc32)c1C | active: 0% |
| CCc1nn(CC(=O)NCc2ccc(OC)cc2OC)c(=O)c2cc3c(OC)cccc3n12 | inactive: 68% |
| CCC(=O)N1CCc2cc(S(=O)(=O)NC(C(=O)NCCc3ccc(Cl)cc3)C(C)C)ccc21 (configuration not stated) | inactive: 99% |
| COc1ccc(-c2cc(OC(=O)c3ccc(F)cc3)c3c(C)oc(C)c3c(=O)c2)cc1OC | inactive: 79% |
| O=C(Nc1ccc(N2CCCCC2)cc1)c1cccs1 | inactive: 88% |
| Cc1ccc(Cc2c(C)nn(-c3nc(C)c(C(=O)N4CCCCC4C)s3)c2C)cc1 (configuration not stated) | inactive: 54% |
| COc1ccc(-c2noc(CSc3nnc(-c4ccccc4)n3-c3ccc(F)cc3)n2)c(OC)c1 | inactive: 88% |
| COc1ccc(NC(=O)C2CCCN(S(=O)(=O)c3c(C)n[nH]c3C)C2)cc1OC (configuration not stated) | inactive: 125% |
| O=C(COCc1cc(-c2cccs2)on1)NCc1ccccc1Cl | inactive: 74% |
| O=C1C=C(NCc2ccc(Cl)cc2)CC(c2ccco2)C1 (configuration not stated) | inactive: 110% |
| COc1cc(C2c3c(oc4ccccc4c3=O)C(=O)N2c2nc(C)c(C)s2)ccc1O (configuration not stated) | inactive: 51% |
| Cc1c(C(=O)OC2CCCCC2)[nH]c2c1C(=O)CC(c1ccccc1Cl)C2 (configuration not stated) | inactive: 86% |
| O=C(NCc1ccccc1F)C1CCN(Cc2cc3ccccc3n2Cc2cccc(Cl)c2)CC1 | inactive: 78% |
